Data: the supplement of paper PMC8728848
The list shows a part of the results.

Key:
Assay in all cases: glycan array binding signal (z-score within array); higher = stronger binding
Settings in all cases: glycan notation: IUPAC condensed, linker removed; mutation: G182A
[1] = target: Neu5Ac(a2-3)Gal6S(b1-4)[Fuc(a1-3)]GlcNAc
Procedure, shortened: (§1)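 The Consortium for Functional Glycomics database supplied 3228 glycan arrays, of which those lacking an available protein sequence were dropped. The binding signal, a within-array Z-score, was averaged across arrays of the same protein sequence and across linkers. Negative scores can be read as non-binding.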

[2] = target: Neu5Ac(a2-3)GalNAc
Procedure, shortened: as §1

[3] = target: Neu5Ac(a2-3)GalNAc(b1-4)GlcNAc
Procedure, shortened: as §1

[4] = target: Neu5Ac(a2-3)[GalNAc(b1-4)]Gal(b1-4)Glc
Procedure, shortened: as §1

[5] = target: Neu5Ac(a2-3)[GalNAc(b1-4)]Gal(b1-4)GlcNAc
Procedure, shortened: as §1

[6] = target: Neu5Ac(a2-3)[GalNAc(b1-4)]Gal(b1-4)GlcNAc(b1-3)GalNAc
Procedure, shortened: as §1

[7] = target: Neu5Ac(a2-3)[Neu5Ac(a2-6)]GalNAc
Procedure, shortened: as §1

[8] = target: Neu5Ac(a2-6)Gal
Procedure, shortened: as §1

[9] = target: Neu5Ac(a2-6)Gal(b1-4)Glc
Procedure, shortened: as §1

[10] = target: Neu5Ac(a2-6)Gal(b1-4)GlcNAc
Procedure, shortened: as §1

[11] = target: Neu5Ac(a2-6)Gal(b1-4)GlcNAc(b1-2)Man(a1-3)Man(b1-4)GlcNAc(b1-4)GlcNAc
Procedure, shortened: as §1

[12] = target: Neu5Ac(a2-6)Gal(b1-4)GlcNAc(b1-2)Man(a1-3)[Gal(b1-4)GlcNAc(b1-2)Man(a1-6)]Man(b1-4)GlcNAc(b1-4)GlcNAc
Procedure, shortened: as §1

[13] = target: Neu5Ac(a2-6)Gal(b1-4)GlcNAc(b1-2)Man(a1-3)[GlcNAc(b1-2)Man(a1-6)]Man(b1-4)GlcNAc(b1-4)GlcNAc
Procedure, shortened: as §1

[14] = target: Neu5Ac(a2-6)Gal(b1-4)GlcNAc(b1-2)Man(a1-3)[GlcNAc(b1-2)Man(b1-4)GlcNAc(b1-2)Man(a1-6)]Man(b1-4)GlcNAc(b1-4)GlcNAc
Procedure, shortened: as §1

[15] = target: Neu5Ac(a2-6)Gal(b1-4)GlcNAc(b1-2)Man(a1-3)[Man(a1-6)]Man(b1-4)GlcNAc(b1-4)GlcNAc
Procedure, shortened: as §1

[16] = target: Neu5Ac(a2-6)Gal(b1-4)GlcNAc(b1-2)Man(a1-3)[Neu5Ac(a2-6)Gal(b1-4)GlcNAc(b1-2)Man(a1-6)]Man(b1-4)GlcNAc(b1-4)GlcNAc
Procedure, shortened: as §1

[17] = target: Neu5Ac(a2-6)Gal(b1-4)GlcNAc(b1-2)Man(a1-6)Man(b1-4)GlcNAc(b1-4)GlcNAc
Procedure, shortened: as §1

[18] = target: Neu5Ac(a2-6)Gal(b1-4)GlcNAc(b1-2)Man(a1-6)[Gal(b1-4)GlcNAc(b1-2)Man(a1-3)]Man(b1-4)GlcNAc(b1-4)GlcNAc
Procedure, shortened: as §1

[19] = target: Neu5Ac(a2-6)Gal(b1-4)GlcNAc(b1-2)Man(a1-6)[GlcNAc(b1-2)Man(a1-3)]Man(b1-4)GlcNAc(b1-4)GlcNAc
Procedure, shortened: as §1

[20] = target: Neu5Ac(a2-6)Gal(b1-4)GlcNAc(b1-2)Man(a1-6)[Man(a1-3)]Man(b1-4)GlcNAc(b1-4)GlcNAc
Procedure, shortened: as §1

[21] = target: Neu5Ac(a2-6)Gal(b1-4)GlcNAc(b1-3)Gal(b1-3)GlcNAc
Procedure, shortened: as §1

[22] = target: Neu5Ac(a2-6)Gal(b1-4)GlcNAc(b1-3)Gal(b1-4)GlcNAc
Procedure, shortened: as §1

[23] = target: Neu5Ac(a2-6)Gal(b1-4)GlcNAc(b1-3)Gal(b1-4)GlcNAc(b1-3)Gal(b1-4)GlcNAc
Procedure, shortened: as §1

[24] = target: Neu5Ac(a2-6)Gal(b1-4)GlcNAc(b1-3)Gal(b1-4)[Fuc(a1-3)]GlcNAc(b1-3)Gal(b1-4)[Fuc(a1-3)]GlcNAc
Procedure, shortened: as §1

[25] = target: Neu5Ac(a2-6)Gal(b1-4)GlcNAc(b1-3)GalNAc
Procedure, shortened: as §1

B1: Gal 3 (Homo sapiens), P17931 (protein)
chain: MADNFSLHDALSGSGNPNPQGWPGAWGNQPAGAGGYPGASYPGAYPGQAPPGAYPGQAPPGAYHGAPGAYPGAPAPGVYPGPPSGPGAYPSSGQPSAPGAYPATGPYGAPAGPLIVPYNLPLPGGVVPRMLITILGTVKPNANILDFQRGNDVAFHFNPRFNENNRRVIVCNTKLDNNWAREERQSVFPFESGKPFKIQVLVEPDHFKVAVNDAHLLQYNHRVKKLNEISKLGISGDIDLTSASYTMI
- glycan array binding signal (z-score) [1]: -0.194
- glycan array binding signal (z-score) [2]: -0.192
- glycan array binding signal (z-score) [3]: -0.147
- glycan array binding signal (z-score) [4]: -0.189
- glycan array binding signal (z-score) [5]: -0.191
- glycan array binding signal (z-score) [6]: -0.195
- glycan array binding signal (z-score) [7]: -0.189
- glycan array binding signal (z-score) [8]: -0.176
- glycan array binding signal (z-score) [9]: -0.183
- glycan array binding signal (z-score) [10]: -0.177
- glycan array binding signal (z-score) [11]: -0.19
- glycan array binding signal (z-score) [12]: -0.164
- glycan array binding signal (z-score) [13]: -0.196
- glycan array binding signal (z-score) [14]: -0.136
- glycan array binding signal (z-score) [15]: -0.191
- glycan array binding signal (z-score) [16]: -0.156
- glycan array binding signal (z-score) [17]: -0.176
- glycan array binding signal (z-score) [18]: -0.194
- glycan array binding signal (z-score) [19]: -0.123
- glycan array binding signal (z-score) [20]: -0.17
- glycan array binding signal (z-score) [21]: 0.189
- glycan array binding signal (z-score) [22]: 0.013
- glycan array binding signal (z-score) [23]: 3.27
- glycan array binding signal (z-score) [24]: -0.188
- glycan array binding signal (z-score) [25]: -0.143
